# Assay results as given in PubChem BioAssay (NCATS).
# “And” between values parts separate entries of the source, which are not always exact repeats. Identical values can stand only once. The inconclusive results got no clear call from the source; some entries with a clear call stand among them for comparison. For some of these results: Where the call is inconclusive, the potency comes from a doubtful curve fit. The source made the active and inactive calls. Unless noted, the call rests on the fitted dose curve; in most records, active means well fitted curve in the direction sought with a large enough effect; inconclusive means small, poorly fitted or top-dose-only effect, or another doubt; inactive means no such curve, though single readings can be large; an effect the other way counts as inactive or inconclusive.
# Experiments:
# [1] = qHTS of pediatric cancer cell lines to identify multiple opportunities for drug repurposing: Primary screen for BT-37 cells (AID 1347094); further: potency means the concentration at half of the fitted maximal effect;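 on activity change, negative = cytotoxic: plate controls were DMSO for no effect and bortezomib for full effect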
# Summary of the method: (§1)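 Plated cells (500-1,000 per well, growth media) were allowed to settle for 5 hours, treated with compound dilutions for 48 hours, then lysed with CellTiter-Glo for 15 min at room temperature before luminescence reading.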
# [2] = qHTS of pediatric cancer cell lines to identify multiple opportunities for drug repurposing: Primary screen for NB-EBc1 cells (AID 1347095); further: potency means the concentration at half of the fitted maximal effect;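 on activity change, negative = cytotoxic: plate controls were DMSO neutral control for no effect and bortezomib for full effect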
# Summary of the method: as §1
# [3] = qHTS of pediatric cancer cell lines to identify multiple opportunities for drug repurposing: Primary screen for BT-12 cells (AID 1347101); further: nearly all actives have a fitted effect of over 25% in size; further: potency means the concentration at half of the fitted maximal effect;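 on activity change, negative = cytotoxic: plate controls were DMSO for no effect and bortezomib positive control for full effect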
# Summary of the method: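 Cells (500-1,000/well) rested 5 h, then received compounds for 48 h; metabolically active cells were measured by CellTiter-Glo luminescence. Final concentrations spanned up to 46 µM (MIPE, 11-point) or 0.59 nM-46 µM (NPC, 8-point) in primary screens, 11-point in follow-ups.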
# [4] = qHTS of pediatric cancer cell lines to identify multiple opportunities for drug repurposing: Primary screen for RD cells (AID 1347104); conditions: RD rhabdomyosarcoma viability, CellTiter-Glo luminescence, 48 h; activity change, negative = cytotoxic: at 46 µM (top of the series); further: nearly all actives have a fitted effect of over 55% in size; further: potency means the concentration at half of the fitted maximal effect;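 on activity change, negative = cytotoxic: plate controls were DMSO for no effect and bortezomib for full effect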
# Summary of the method: as §1
# [5] = qHTS of pediatric cancer cell lines to identify multiple opportunities for drug repurposing: Primary screen for Rh41 cells (AID 1347108); further: potency means the concentration at half of the fitted maximal effect; nearly all actives have a fitted effect of over 70% in size
# Summary of the method: as §1
# [6] = Primary qHTS for small molecule stabilizers of the endoplasmic reticulum resident proteome: Secreted ER Calcium Modulated Protein (SERCaMP) assay (AID 1508630); conditions: SH-SY5Y GLuc-SERCaMP (Gaussia luciferase released on ER calcium loss) secretion, thapsigargin, luminescence; activity change, negative = inhibition: at 38.4 µM (top of the series) unless noted; further: potency means the concentration at half of the fitted maximal effect
# Summary of the method: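 GLuc-SERCaMP-expressing SH-SY5Y cells, pretreated 16 h with compound, are challenged with thapsigargin to empty ER calcium stores; after 4 h, coelenterazine is added directly to the medium and luminescence is imaged.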
# UISO = test: qHTS assay to identify novel small-molecules to repurpose for Merkel cell carcinoma treatment (AID 1296009); conditions: MCC and control cell lines, CellTiter-Glo viability, 72 h; activity change, negative = cytotoxicity: at 46 µM (top of the series); further: potency means the concentration at half of the fitted maximal effect; nearly all actives have a fitted effect of over 60% in size
# Summary of the method: (§2)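 After compound transfer in DMSO, plates were kept 72 hr at 37 degree celsius. Luminescent ATP signal from CellTiter-Glo served as viability measure, normalized against DMSO and no-cell controls.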
# WaGa = test: as above; conditions: MCC and control cell lines, CellTiter-Glo viability, 72 h; series mostly up to 46 µM
# Summary of the method: as §2
# HeLa = test: Primary qHTS to identify gynecologic anti-cancer compounds using libraries of approved drugs and bioactive compounds (AID 1345084); conditions: Gynecologic cancer cell panel viability, ATPlite luminescence, 48 h; activity change, negative = cytotoxicity: at 57.5 µM (top of the series); further: on the % scale 0 is the no-effect control and ±100 the full control effect; nearly all actives have a fitted effect of over 55% in size
# Summary of the method: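 Five-concentration response, 48 h; readout is ATP-driven luciferase luminescence.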
# [7] = target: Glutathione peroxidase 1 (Homo sapiens) (UniProt P07203); test: Primary qHTS Assay for Inhibitors of Recombinant Selenoprotein Glutathione Peroxidase 1 (GPX1) (AID 1845191); conditions: activity, negative = inhibition: at 48.8 µM (top of the series); further: potency means the concentration at half of the fitted maximal effect; nearly all actives have a fitted effect of over 65% in size
# Summary of the method: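 10 nM GPX1 + cpd, 30 min RT; start w/ 1 mM GSH, 0.5 mM cumene hydroperoxide, 0.5 mM NADPH, 100 nM GR, 0.01% BSA; buffer 50 mM Tris-HCl pH 7.5, 2 mM EDTA, 150 mM NaCl; Fl 340/450, 0 & 15 min.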
# [8] = target: Phospholipid hydroperoxide glutathione peroxidase GPX4 (Homo sapiens) (UniProt P36969); test: Primary qHTS Assay for Inhibitors of Recombinant Selenoprotein Glutathione Peroxidase 4 (GPX4) (AID 1845192); further: potency means the concentration at half of the fitted maximal effect; nearly all actives have a fitted effect of over 65% in size
# Summary of the method: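 NADPH consumption, followed by fluorescence at 340/450 nm between 0 and 15 min, reports GPX4 activity via coupled glutathione reductase (100 nM). Enzyme 200 nM was pre-exposed to compound 30 min; 0.5 mM cumene hydroperoxide and 1 mM GSH served as substrates.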
# [9] = qHTS of pediatric cancer cell lines to identify multiple opportunities for drug repurposing: Primary screen for NB1643 cells (AID 1347099); further: potency means the concentration at half of the fitted maximal effect; nearly all actives have a fitted effect of over 50% in size
# Summary of the method: as §1
# [10] = qHTS to identify inhibitors of the type 1 interferon - major histocompatibility complex class I in skeletal muscle: primary screen against the NCATS Mechanism Interrogation Plate v5.0 (MIPE) Libary (AID 1347411); conditions: iHSKM cells + IFN-b, HiBiT-tagged MHC-I luminescence, 24 h; activity change, negative = inhibition: at 45.8 µM (top of the series); further: potency means the concentration at half of the fitted maximal effect; nearly all actives have a fitted effect of over 65% in size
# Summary of the method: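 Cells were genome-edited human myoblasts carrying a HiBit tag on endogenous HLA-B. They were treated with IFN-beta (4.0 ng/ml) and titrated compounds (top 46 uM) for 24 hrs before lytic HiBiT detection.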
# [11] = target: Calcium and integrin-binding protein 1 (Homo sapiens) (UniProt Q99828); test: Primary qHTS for Identification of Calcium Integrin Binding Protein 1 (CIB1) Competitor (AID 1508620); further: potency means the concentration at half of the fitted maximal effect;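 on activity change, negative = inhibition: GST tagged CIB1 binding a fluorescein labelled alphaIIb integrin peptide tracer; top concentration of the series differs between compounds; on the % scale 0 is the no-effect control and ±100 the full control effect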
# Summary of the method: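 CIB1-GST (1 uM final) and compound incubated 15 min at room temperature before adding FITC-alphaIIb peptide tracer (100 nM final). Competition for binding read by fluorescence polarization (ex 480, em 540) after another 15 min at room temperature.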
# [12] = qHTS assay to identify inhibitors of the type 1 interferon - major histocompatibility complex class I in skeletal muscle: Counter screen cell viability and HiBit confirmation (AID 1347412); conditions: iHSKM muscle cells + IFN-b, HiBiT or CellTiter-Glo, 24 h; Viability; further: potency means the concentration at half of the fitted maximal effect; nearly all actives have a fitted effect of over 60% in size
# Summary of the method: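 CRISPR HLA-B*08:01-HiBit immortalized human myoblasts (C25cl48) stimulated with 4 ng/ml IFN-beta and compounds (12-point 1:3, top 46 uM final) for 24 h at 37 C. Duplicate plates read by HiBit lytic luminescence or CellTiter Glo ATP.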
# [13] = target: Cytochrome P450 2C9 (Homo sapiens) (UniProt P11712); test: Cytochrome P450 family 2 subfamily C member 9 (CYP2C9) small molecule antagonists: luciferase biochemical (cell-free) qHTS assay (AID 1645842; active means well fitted curve in the direction sought with a large enough effect in the repeat runs; inconclusive means weak or mixed curves; inactive means no such curve, though single readings can be large; an effect the other way counts as inactive or inconclusive; further: on the % scale 0 is the no-effect control and ±100 the full control effect; nearly all actives have a fitted effect of over 55% in size)
# Summary of the method: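 Luminescence, after 20 min with luciferin detection reagent, reflected CYP2C9 turnover during a 1 h NADPH-driven reaction at 37C. Enzyme-substrate mix contained 0.4% bovine serum albumin and was preincubated with compound 10 min at room temperature.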
# [14] = Primary redox qHTS assay for identification of artifact compounds. (AID 1845223); conditions: Amplex Red/HRP redox cycling with DTT, fluorescence; redox activity (% of DA3003): at 53.8 µM (top of the series); further: potency means the concentration at half of the fitted maximal effect
# Summary of the method: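 Amplex Red (25 uM) and HRP (250 mU/mL) in HBSS, with compounds for 15 min, then 250 uM DTT for 30 min, room temperature, dark. Fluorescence 525/598 nm read; normalized to DMSO and 10 uM DA3003; Hill fit.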
# [15] = target: Cytochrome P450 2D6 (Homo sapiens) (UniProt P10635); test: Cytochrome P450 family 2 subfamily D member 6 (CYP2D6) small molecule antagonists: luciferase biochemical (cell-free) qHTS assay (AID 1645840; active means well fitted curve in the direction sought with a large enough effect in the repeat runs; inconclusive means weak or mixed curves; inactive means no such curve, though single readings can be large; an effect the other way counts as inactive or inconclusive; further: nearly all actives have a fitted effect of over 55% in size; further: potency means the concentration at half of the fitted maximal effect; on activity change, negative = inhibition: on the % scale 0 is the no-effect control and ±100 the full control effect)
# Summary of the method: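 P450-Glo luminescent screen: recombinant CYP2D6 enzyme–proluciferin substrate mix preincubated with compound 10 min at room temperature, then NADPH regeneration added for 1 h at room temperature. Detection reagent added for 20 min; luciferin light read as relative luminescence units.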
# [16] = A High-Content qHTS Against Drug Library for the Identification of Small Molecules that Inhibit DYT1 Early Onset Primary Dystonia-Associated Cell Pathology (AID 1645839; calls by dose curve; further: potency means the concentration at half of the fitted maximal effect)
# Summary of the method: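 In this high-content image screen, delE TorsinA mislocalization in inducible Flp-In 293 cells is scored as %pathology, with cell count serving as the counterscreen. Compound exposure lasts 48 h under tetracycline induction in reduced-serum medium.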
# Tags describe the fitted curve by direction and shape.
# Chain of UniProt P36969 (P36969 whole entry, looked up): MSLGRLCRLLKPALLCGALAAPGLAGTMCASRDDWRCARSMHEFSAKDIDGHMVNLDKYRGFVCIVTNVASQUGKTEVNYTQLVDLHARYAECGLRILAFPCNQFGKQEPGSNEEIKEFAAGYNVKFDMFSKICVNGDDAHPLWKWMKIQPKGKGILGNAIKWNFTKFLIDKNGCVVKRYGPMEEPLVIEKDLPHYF
# Chain of UniProt P10635 (P10635 whole entry, looked up): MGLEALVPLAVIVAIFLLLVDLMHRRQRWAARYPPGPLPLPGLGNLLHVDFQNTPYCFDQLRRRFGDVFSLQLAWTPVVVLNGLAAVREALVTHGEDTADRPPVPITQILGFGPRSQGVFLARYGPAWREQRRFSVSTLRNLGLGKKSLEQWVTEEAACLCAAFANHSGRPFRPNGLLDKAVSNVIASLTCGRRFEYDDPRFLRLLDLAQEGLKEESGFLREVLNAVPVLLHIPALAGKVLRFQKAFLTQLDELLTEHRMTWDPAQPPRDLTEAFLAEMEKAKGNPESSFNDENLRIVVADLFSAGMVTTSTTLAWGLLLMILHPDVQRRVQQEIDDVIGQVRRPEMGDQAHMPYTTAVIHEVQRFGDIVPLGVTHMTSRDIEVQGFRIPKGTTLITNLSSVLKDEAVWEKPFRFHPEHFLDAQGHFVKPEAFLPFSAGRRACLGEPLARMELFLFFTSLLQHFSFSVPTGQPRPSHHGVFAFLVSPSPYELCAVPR
# Chain of UniProt Q99828 (Q99828 whole entry, looked up): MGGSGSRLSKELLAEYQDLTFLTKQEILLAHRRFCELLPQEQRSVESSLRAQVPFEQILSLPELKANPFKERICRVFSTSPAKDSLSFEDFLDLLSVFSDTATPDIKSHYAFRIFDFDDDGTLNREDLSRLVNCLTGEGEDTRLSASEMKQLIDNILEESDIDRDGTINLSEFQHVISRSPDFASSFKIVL
# Chain of UniProt P07203 (P07203 whole entry, looked up): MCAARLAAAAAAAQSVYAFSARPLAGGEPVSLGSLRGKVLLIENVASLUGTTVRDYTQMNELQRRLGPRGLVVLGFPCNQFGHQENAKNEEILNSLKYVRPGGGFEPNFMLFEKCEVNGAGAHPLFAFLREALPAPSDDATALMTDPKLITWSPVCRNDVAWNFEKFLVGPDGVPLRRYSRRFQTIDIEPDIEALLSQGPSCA
# Chain of UniProt P11712 (P11712 whole entry, looked up): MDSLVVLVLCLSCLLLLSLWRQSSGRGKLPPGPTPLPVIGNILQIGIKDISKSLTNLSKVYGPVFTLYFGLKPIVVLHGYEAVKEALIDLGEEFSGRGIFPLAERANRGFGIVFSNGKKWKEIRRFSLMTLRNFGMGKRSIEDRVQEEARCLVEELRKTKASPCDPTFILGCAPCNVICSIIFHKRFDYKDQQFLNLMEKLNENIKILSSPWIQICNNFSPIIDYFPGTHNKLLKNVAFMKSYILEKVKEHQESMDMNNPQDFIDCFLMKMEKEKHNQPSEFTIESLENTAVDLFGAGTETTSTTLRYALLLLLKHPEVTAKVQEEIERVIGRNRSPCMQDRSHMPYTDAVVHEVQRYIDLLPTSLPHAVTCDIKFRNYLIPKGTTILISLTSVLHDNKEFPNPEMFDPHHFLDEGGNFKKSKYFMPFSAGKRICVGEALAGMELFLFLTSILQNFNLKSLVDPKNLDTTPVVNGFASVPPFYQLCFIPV
smiles,measurement,setting,value
COc1cc(OC)c(C=CS(=O)(=O)Cc2ccc(OC)c(NCC(=O)O)c2)c(OC)c1,Potency,[1],"inconclusive: 0.306 µM [cytotoxic, full curve]"
same,Potency,[2],active: 0.187 µM
same,Potency,[3],"inconclusive: 0.685 µM [cytotoxic, full curve]"
same,Potency,[4],"inconclusive: 0.148 µM [cytotoxic, full curve]"
same,Potency,[5],"inconclusive: 0.372 µM [cytotoxic, full curve]"
same,Potency,[6],"inconclusive: 29.8 µM [inhibitor, single point]"
same,Potency,UISO,"inconclusive: 0.0935 µM [inhibitor, full curve]"
same,Potency,WaGa,"inconclusive: 0.148 µM [inhibitor, full curve]"
COc1cc(O)c(C(=O)CCc2ccc(O)cc2)c(O[C@@H]2O[C@H](CO)[C@@H](O)[C@H](O)[C@H]2O)c1,Potency,HeLa,inactive
CO/N=C(/C(=O)N[C@@H]1C(=O)N2C(C(=O)O)=C(Cn3ccc(=N)n3CCO)CS[C@H]12)c1csc(N)n1,Potency,[7],active: 8.06 µM
same,Potency,[8],"inconclusive: 18 µM [inhibitor, single point]"
Cc1cc(N2CCOCC2)cc2[nH]c(-c3c(NC[C@@H](O)c4cccc(Cl)c4)cc[nH]c3=O)nc12,Potency,[1],active: 24.3 µM
same,Potency,[2],active: 0.59 µM
same,Potency,[9],active: 0.332 µM
same,Potency,[4],active: 0.59 µM
same,Potency,[5],active: 0.296 µM
same,Potency,[10],"inconclusive: 1.17 µM [inhibitor, full curve, poor fit]"
same,Potency,[11],"inactive and inconclusive: 17.8 µM [inhibitor, full curve, poor fit]"
same,Potency,[8],"inconclusive: 32.1 µM [inhibitor, single point]"
same,Potency,[12],"inconclusive: 9.91 µM [cytotoxic, partial curve]"
same,Potency,UISO,active: 1.32 µM
same,Potency,WaGa,"inconclusive: 11.8 µM [inhibitor, partial curve]"
CCCCCCOc1cc2c(cc1N(C)c1ncc(C(=O)O)cn1)C(C)(C)CCC2(C)C,Potency,[13],inactive
CC(=O)C1=C(O)C=C2Oc3c(C(C)=O)c(O)c(C)c(O)c3[C@]2(C)C1=O,Potency,[14],"inconclusive: 29.9 µM [activator, single point]"
C=CC(=O)Nc1cccc(Nc2nc(NC3CCC(N(C)C)CC3)nc3c2ncn3C(C)C)c1 (centres undefined),Potency,[1],active: 0.0968 µM
same,Potency,[9],active: 0.0332 µM
same,Potency,[5],active: 0.0209 µM
same,Potency,[6],"inconclusive: 0.0335 µM [inhibitor, full curve, poor fit]"
same,Potency,WaGa,"inconclusive: 0.0033 µM [inhibitor, full curve]"
Cc1cc(C(=O)Nc2cc(Oc3ccc4nc(NC(=O)C5CC5)cn4n3)ccc2C)n(C)n1,Potency,[10],"inconclusive: 33 µM [inhibitor, partial curve, poor fit]"
same,Potency,[8],active: 25.5 µM
CC(C)(C)NS(=O)(=O)c1cncc(-c2cc(F)c3nc(N)nn3c2)c1,Potency,[15],inactive
C/C(=C\C(=O)OCCCCCCCCC(=O)O)C[C@@H]1OC[C@H](C[C@@H]2O[C@H]2[C@@H](C)[C@H](C)O)[C@@H](O)[C@H]1O,Potency,[14],"inconclusive: 18.9 µM [activator, partial curve, poor fit]"
N[C@@H](Cc1ccc(O)cc1)C(=O)O,"activity change, negative = cytotoxic",[1],inactive: 20.6% [at 11.5 µM]
same,"activity change, negative = cytotoxic",[2],inactive: 15% [at 9.22 µM]
same,"activity change, negative = cytotoxic",[3],inactive: 11.7% [at 11.5 µM]
same,"activity change, negative = cytotoxic",[4],inactive: 14.4% [at 9.22 µM]
CCC(=C(c1ccc(OCCN2CCCC2)cc1)c1ccc(OCCN2CCCC2)cc1)c1ccccc1,Potency,[15],"inconclusive: 6.92 µM [inhibitor, partial curve, poor fit]"
CO[C@H]1C[C@@H]2CC[C@@H](C)[C@@](O)(O2)C(=O)C(=O)N2CCCC[C@H]2C(=O)O[C@H]([C@@H](C)C[C@@H]2CC[C@@H](O)[C@H](OC)C2)CC(=O)[C@H](C)/C=C(\C)[C@@H](O)[C@@H](OC)C(=O)[C@H](C)C[C@H](C)/C=C/C=C/C=C/1C,Potency,[8],"inconclusive: 11.2 µM [inhibitor, partial curve]"
COC(=O)C12C(=O)C(C)=C(O)C1(C)C(C)=CC1C3(CO)CCC(O)C(C)(C)C3CCC12C (centres undefined),Potency,[14],"inconclusive: 14.6 µM [activator, partial curve, poor fit]"
CN1CCC[C@@H]1CCO[C@](C)(c1ccccc1)c1ccc(Cl)cc1,Potency,[1],"inconclusive: 24.6 µM [cytotoxic, single point]"
same,Potency,[2],"inconclusive: 16.8 µM [cytotoxic, single point]"
same,Potency,[3],active: 27.6 µM
same,Potency,[4],active: 26.6 µM
same,Potency,[5],"inconclusive: 15 µM [cytotoxic, partial curve]"
same,Potency,[6],"inconclusive: 7.94 µM [inhibitor, partial curve, poor fit] and inconclusive: 8.91 µM [inhibitor, partial curve, poor fit]"
same,Potency,[16],"inconclusive: 11.2 µM [inhibitor, partial curve, poor fit]"
same,Potency,[7],"inconclusive: 6.4 µM [inhibitor, full curve]"
same,Potency,WaGa,"inconclusive: 26.6 µM [inhibitor, single point]"
